Results: PubChem BioAssay AID1347120 (National Center for Advancing Translational Sciences (NCATS), 2019)
The campaign covered roughly 390,000 compounds. About 930 (0.24%) were called active. Inconclusive means that the source gave no clear call. Such entries were picked first, then a sample of the others. Calls come from the whole dose curve; as a rule, active = well fitted activation curve with a large enough effect; inconclusive = small, poorly fitted or top-dose-only effect; inactive = no such curve, though single readings can be large or run the other way. Potencies of inconclusive entries are doubtful fits and often do not repeat.

Assay: qHTS for Suppressors of FUS Proteinopathy: Primary screen using FUS-linked yeast assay; note: nearly all actives have a fitted effect of over 55% in size;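 for growth rescue (activation): plate controls were DMSO vehicle for no effect and reference control for full effect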
Conditions: S. cerevisiae FUS-expressing, OD600, 24 h; Potency: growth rescue; growth rescue (activation): at 76.6 µM (top of the series)
How it was run: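 Toxicity suppression screen in FUS-yeast. Cells induced with 2% galactose, starting OD 0.005, treated 24hr at 30C with compounds at multiple final concentrations; growth by OD600.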
Potency is the fitted concentration of half-maximal effect; tags give direction and shape of the fitted curve.

| Structure (SMILES) | Potency | growth rescue (activation) |
| --- | --- | --- |
| Cc1cc2n(n1)CCCN2C(=O)Nc1ccc(Cl)cc1 | inactive | – |
| CCOc1cccc(/C=N/NC(=S)Nc2ccccc2[N+](=O)[O-])c1O | inactive | – |
| CC(C)c1nnc(NC(=O)c2nc(SCc3ccc(F)cc3)ncc2Cl)s1 | active: 8.91 µM | – |
| CCC(C)(C)n1nnnc1C(c1cc2cc(C)cc(C)c2[nH]c1=O)N1CCCC1 (stereo not given) | active: 25.1 µM | – |
| Cc1cccc(-n2c(=O)c3c(n4cnnc24)-c2ccccc2CC32CCCCC2)c1 | inactive | – |
| Cc1cccc(N2CCN(C(=O)c3cc(S(=O)(=O)N(C)C)ccc3Cl)CC2)c1C | inconclusive: 17.8 µM [activator, partial curve] | – |
| COc1ccc(N(C(=O)c2ccco2)S(=O)(=O)c2cc(Cl)c(Cl)cc2Cl)cc1 | inconclusive: 14.1 µM [activator, partial curve, poor fit] | – |
| COc1ccc(NC(=O)CN(C)CC(=O)Nc2ccc(Cl)cc2[N+](=O)[O-])cc1 | inactive | – |
| O=C(c1cc2ccccc2oc1=O)N(Cc1ccco1)C1CCS(=O)(=O)C1 (stereo not given) | inconclusive: 2.82 µM [activator, full curve] | – |
| CC(C)CCNC(=O)c1ccc(Cn2c(SCC(=O)NC(C)C)nc3ccccc3c2=O)cc1 | inactive | – |
| CCCCCC(=O)Nc1ccc(C2C(=O)c3ccccc3C2=O)cc1 | inconclusive: 22.4 µM [activator, partial curve, poor fit] | – |
| O=C1C(NC(=O)N2c3ccccc3C=Cc3ccccc32)CCCCN1Cc1cccc(C(F)(F)F)c1 (stereo not given) | inconclusive: 8.91 µM [activator, partial curve] | – |
| C=CCNc1nc(NCc2cccc(OC)c2)c2sc(-c3ccccc3)cc2n1 | inactive | – |
| COc1ccc(CC(=O)O/N=C(\N)c2ccc(OC)cc2)cc1 | inactive | – |
| Cc1onc(-c2ccccc2)c1C(=O)OCC(=O)Nc1ccc(OC(F)(F)F)cc1 | inactive | – |
| CC1(C(=O)NS(=O)(=O)c2cccc(OC(F)F)c2)CCN1C(=O)CC1CCCC1 (stereo not given) | inactive | – |
| CCN(CC)CCCNC(=O)CCCn1c(=O)[nH]c2ccc(Br)cc2c1=O | inactive | – |
| COc1ccc(-c2cc(C(=O)N(C)CC(=O)Nc3ccccc3Br)c3ccccc3n2)cc1OC | inconclusive: 44.7 µM [activator, single point] | – |
| COc1ccc(S(=O)(=O)N(C)C[C@H]2Oc3c(NC(=O)Nc4ccc(C(F)(F)F)cc4)cccc3C(=O)N([C@H](C)CO)C[C@@H]2C)cc1 | inconclusive: 31.6 µM [activator, single point] | – |
| C/C=C/c1ccc(OCCCCn2cncn2)c(OC)c1 | inconclusive: 35.5 µM [activator, partial curve, poor fit] | – |
| CCCCn1nc(C(=O)NCC2COc3ccccc3O2)c2ccccc2c1=O (stereo not given) | inconclusive: 28.2 µM [activator, single point] | – |
| CC[C@]12c3[nH]c4ccccc4c3CCN1C(=O)C(CC(=O)NC/C=C(\C)CCC=C(C)C)C[C@@H]2C(=O)N1CCN(C(=O)C2CC2)CC1 (stereo not given in full) | active: 17.8 µM | – |

| Structure (SMILES) | Potency | growth rescue (activation) |
| --- | --- | --- |
| CC#CCN1c2ccccc2[C@]23C[C@@H](C(=O)OC)N(C(=O)C4CCC4)C2=NC(C(=O)OC)=C(C(=O)OC)[C@H]13 | inconclusive: 39.8 µM [activator, single point] | – |
| COc1ccc(OC)c(S(=O)(=O)N2CCCCC2C(=O)N2CCN(c3ccccc3F)CC2)c1 (stereo not given) | inconclusive: 20 µM [activator, partial curve, poor fit] | – |
| CCOC(=O)Nc1ccc2c(c1)[C@]1(CC(=O)N(CC(C)C)C1c1ccccc1)C(=O)N2C (stereo not given in full) | inactive | – |
| Cc1ccc(CN2CCC(CNC(=O)c3ccc(NC(=O)C4=CSCCO4)cc3)CC2)cc1 | inconclusive: 15.8 µM [activator, partial curve] | – |
| Cc1ccc(-c2csc3ncnc(OCC(=O)NC(=O)NCc4ccco4)c23)cc1 | inconclusive: 39.8 µM [activator, partial curve, poor fit] | – |
| CC(C)C(=O)Nc1ccc(C(=O)NC2CCSC2=O)cc1 (stereo not given) | inconclusive: 39.8 µM [activator, partial curve, poor fit] | – |
| Cc1cc(C)n(Cc2ccc(C(=O)NN)o2)n1 | inactive | – |
| O=C(C1CCCN(S(=O)(=O)c2ccc([N+](=O)[O-])cc2)C1)N1CCN(Cc2ccccc2)CC1 (stereo not given) | inactive | – |
| COc1ccc(CN[C@@H]2CC[C@@]34CCCN3C(=O)CCC[C@H]4C2)cc1OC | inactive | – |
| CCCCn1c(N)c(N(CCOC)C(=O)c2oc3ccc(Br)cc3c2C)c(=O)[nH]c1=O | active: 15.8 µM | – |
| COc1ccc(CN2C(=O)c3cccnc3C2=O)cc1S(=O)(=O)N1CCOc2ccc(Cl)cc21 | inconclusive: 35.5 µM [activator, single point] | – |
| CC(C)c1ccc(Nc2ncc3c(n2)CCN(C(=O)Nc2ccc(F)c(Cl)c2)C3)cc1 | inconclusive: 44.7 µM [activator, single point] | – |
| COC(=O)C1=CN(c2cccc(C(F)(F)F)c2)C=C(C(=O)OC)C1c1ccc(O)c(OC)c1 | inconclusive: 25.1 µM [activator, partial curve, poor fit] | – |
| O=S(=O)(NCc1csc(-c2cccnc2)n1)c1ccc2c(c1)OCCO2 | inactive | – |
| Fc1ccc(NC2CCC23CCC(c2ccccc2)CC3)cc1C(F)(F)F (stereo not given) | inactive | – |
| CCN(C(=O)COC(=O)/C=C/c1ccc(S(=O)(=O)N2CCc3ccccc32)cc1)C1CCS(=O)(=O)C1 (stereo not given) | inconclusive: 31.6 µM [activator, partial curve, poor fit] | – |
| C/C(=N/NC(=O)c1cc2ccccc2cc1O)C1C(=O)c2ccccc2C1=O | active: 7.08 µM | – |
| CCOC1=CC2=C(C(=O)C(Cl)=CC2=O)[C@@H]2CN(S(=O)(=O)c3ccc(C)cc3)[C@@H](c3ccccc3)[C@H]12 | inconclusive: 31.6 µM [activator, partial curve, poor fit] | – |
| Cc1cc(C)n2nc(CNS(=O)(=O)c3ccc(CC(C)C)cc3)nc2n1 | inactive | – |
| COc1cc(/C=C2\C(=O)N(c3ccc(NC(C)=O)cc3)N=C2c2ccccc2)ccc1O | inconclusive: 50.1 µM [activator, single point] | – |
| COc1ccc(-n2c(=O)c3c4c(sc3n(CC(=O)Nc3cc(C)[nH]n3)c2=O)CCC4)c(OC)c1 | inconclusive: 44.7 µM [activator, single point] | – |
| COC(=O)c1sc(N2C(=O)C(=O)/C(=C(/O)c3ccccc3)C2c2ccco2)nc1C (stereo not given) | inconclusive: 20 µM [activator, partial curve] | – |

| Structure (SMILES) | Potency | growth rescue (activation) |
| --- | --- | --- |
| CN(C)/C=C/c1c([N+](=O)[O-])c2ccc(O)cc2n1-c1ccccc1 | inactive | – |
| COc1cc(OC)c(C(=O)NCc2nc(-c3ccccc3)no2)cc1OC | inconclusive: 50.1 µM [activator, single point] | – |
| COC(=O)c1cc(-c2cc(Cl)cc(Cl)c2)c(=O)n2c1CCC2 | inactive | – |
| O=C(Cn1nnc(-c2ccc(C(F)(F)F)cc2)n1)NCCc1ccccc1 | inactive | – |
| COc1ccc(NC(=O)Nc2cccc3c2O[C@H](CN(C)C(=O)Nc2ccc(OC)cc2)[C@@H](C)CN([C@H](C)CO)C3=O)cc1 | active: 31.6 µM | – |
| COC(=O)[C@@]1(Cc2ccc(OC)cc2)[C@H]2c3cc(C(=O)N4CCCC4)n(Cc4ccsc4Br)c3C[C@H]2CN1C(=O)c1ccccc1 | inconclusive: 14.1 µM [activator, partial curve, poor fit] | – |
| O=S(=O)(Nc1ccc2c(c1)OCCO2)c1ccc(F)c(F)c1 | inactive | – |
| Clc1cccc(Cl)c1NC1=NCCC1 | – | inconclusive: 51.8% [activator] |
| CCCc1cc(=O)[nH]c(SCC(=O)Nc2sc3c(c2C#N)CCC(C)C3)n1 (stereo not given) | inconclusive: 39.8 µM [activator, single point] | – |
| O=C(COc1ccc(Cl)cc1)NCCc1csc(-c2ccc(C(F)(F)F)cc2)n1 | inconclusive: 10 µM [activator, partial curve] | – |
| Cc1ccc(S(=O)(=O)N(C)c2ccc(OCC(=O)Nc3cc(C(=O)O)ccc3Cl)cc2)cc1 | inconclusive: 25.1 µM [activator, single point] | – |
| CC1CCCCN1C(=O)CCC(=O)Nc1nnc(C(F)(F)F)s1 (stereo not given) | inactive | – |
| CC1(c2ccccc2)NC(=O)N(CC(=O)Nc2cc(C(F)(F)F)ccc2N2CCCCC2)C1=O (stereo not given) | inconclusive: 28.2 µM [activator, single point] | – |
| CCOC(=O)C1CCN(C2CCN(C(=O)c3oc4c(C)c(C)ccc4c3C)CC2)CC1 | inconclusive: 2.82 µM [activator, full curve, poor fit] | – |
| Cn1cccc1Cc1nnc(SCC(=O)Nc2cccc(Cl)c2)n1-c1ccc(F)cc1 | inconclusive: 20 µM [activator, partial curve] | – |
| CCOc1ccc(C2c3[nH]c4ccccc4c3CCN2C(=O)CSc2ccccc2)cc1 (stereo not given) | inconclusive: 22.4 µM [activator, partial curve, poor fit] | – |
| C[C@H](NC(=O)c1ncn(Cc2ccccc2)c1C(=O)N[C@@H](C)c1ccccc1)c1ccccc1 | inconclusive: 25.1 µM [activator, single point] | – |
| CC(C)n1nc(C(=O)NCc2ccc3c(c2)OCO3)c2ccccc2c1=O | inconclusive: 14.1 µM [activator, partial curve] | – |
| Cc1ccc(CNC(=O)c2cc3cc(C)ccc3n2C)cc1 | inactive | – |
| CCSc1ccc([C@@H]2[C@H]3C(=O)N(C)C(=O)[C@H]3[C@]3(C(=O)OC)CCCCN23)cc1OC | inconclusive: 14.1 µM [activator, partial curve] | – |
| CC(O)CNc1nc2c(c(=O)n(C)c(=O)n2C)n1CCc1ccccc1 (stereo not given) | inconclusive: 3.98 µM [activator, single point] | – |
